# Article PMC12136788
# This is one part of the list.
# B1: chr12:48362563:48362564:+_ENSG00000134291_ENST00000256686|hu_hu|hu_hu_hu_mus_False|98_98 (ssRNA)
# RNA: GGGAGUUCUACAGUCCGACGAUCUCCGUCAAGCCCUUCAAGCCCCACUUGCGGGGGAAACUGUAAUCACUUUGUAUGGGGAAGGAAAAGAAACGCCAAAAACUUUCCAAAAAGCGGGGGUGGGGUGAGGCGGGAGGGGGAGGUCAACAGAGGAUUGAGCAUCA
# B2: chr2:132618855:132618856:+_ENSMUSG00000027350_ENSMUST00000028826|mus_hu|motif|central (ssRNA)
# RNA: GGGAGUUCUACAGUCCGACGAUCUUCAGGUUCUUCCUCUGAAGCCCUGUAGUGGGUUGAAUGGUGGUCCCUCUUUUCCCCGGAACUGGCCAUGCUGACGUUUGACUCCUCAGAUUCCUCCUGGGGGUGUCCCUUUUCCUCAGACAACAGAGGAUUGAGCAUCA
# B3: 94229784_94229904_786_CDS_ENSMUSG00000041912_ENSMUST00000166032|mouse|control|control (ssRNA)
# RNA: GGGAGUUCUACAGUCCGACGAUCUUCCAGGGGUGUAGCUGGUCCCAUGCUAGAAUUGGUAUUUUUCCAUAAAGCUGCUUCUCCAGCUCCACCAGGCUCUGUCACUUCCUCUCUUCUCACACUGAUUGGCUGCUUUCGUGGGACCAACAGAGGAUUGAGCAUCA
# B4: chr10:33190432:33190433:-_ENSG00000150093_ENST00000302278|hu_mus|hu_hu_hu_mus_True|8_8 (ssRNA)
# RNA: GGGAGUUCUACAGUCCGACGAUCUACAUUUUCCAAACCUGCAUGUGAAUAAAACCCUGGCCACAGAGCCCCAAAACUACCCUACUGUGACUAAGAUGCUGCUGCUGUGAGCUUGGUGUUGCAAAAUUUUGCACGGGAGGAUUCCAACAGAGGAUUGAGCAUCA
# B5: 21160581_21167256_384_CDS_ENSMUSG00000024317_ENSMUST00000052396|mouse|control|control (ssRNA)
# RNA: GGGAGUUCUACAGUCCGACGAUCCAUUGCAGUCAGGAAACAUUUUCUACAGAAAACGUGCUGACAGGCCGCGGUCCGCACCGGCGUCUUGAGCACCUCCUGACAGACAGGGCAGUAGAAAUCAUCUUCCGUGUAGGACGUGGCCAACAGAGGAUUGAGCAUCA
# B6: chr8:117878989:117878990:-_ENSG00000164754_ENST00000297338|hu_hu|hu_hu_hu_mus_True|1_108 (ssRNA)
# RNA: GGGAGUUCUACAGUCCGACGAUCCCAGAGGCCCUCUUUUACUGAGGACAAAAUGUGCGUAGAACAUUUUUCUUAUUUGCUAUGAAAUAAGAAGAAACCUGGAUCUCGGCGGGGAGCCGGGAGGGGUGGGUGGCCCGGGGGAGGCAACAGAGGAUUGAGCAUCA
# B7: chr15:99827826:99827827:+_ENSMUSG00000023025_ENSMUST00000100206|mus_hu|FALSE|FALSE (ssRNA)
# RNA: GGGAGUUCUACAGUCCGACGAUCAUUCAUAGCAGCAGCAUUUGUUUUAUAAGAUCCUGGCGAAUUAAAGCCAUUCACAAAACUACCAUUGGGAAAGGGAGCCAGUGGUGUUUCAAAGUAAGGUGUAGGAUUUGGAGACCAAGACAACAGAGGAUUGAGCAUCA
# B8: chrX:71549400:71549401:+_ENSMUSG00000019087_ENSMUST00000019231|mus_hu|mus_mus_mus_hu_False|48_88 (ssRNA)
# RNA: GGGAGUUCUACAGUCCGACGAUCGCAGUAGGAAGAGGGAAGCUCUUCAUCCACUGUCGCUGCAGGGUGGGAAAGCAACAACACGGAACCAAUACUCCCCUCAACCCCCCCACUGGCACAGGGUCACACAAUCUGGGUCAAAGACAACAGAGGAUUGAGCAUCA
# B9: chr2:29169617:29169618:+_ENSG00000163811_ENST00000407426|hu_mus|motif|central (ssRNA)
# RNA: GGGAGUUCUACAGUCCGACGAUCCGUGUGACUGGCUGGCUGCAUCUGUCUUCAUUCUUCUUCACUCUCGUUUUCAGGAUCGGAAUCCGAAUCUCCAUUUAAUUCUUUUUCACUUGACACUUCUCUGUCCUCCUCAUUCUCUUCCAACAGAGGAUUGAGCAUCA
# B10: chr14:62214197:62214198:+_ENSG00000100644_ENST00000337138|hu_mus|FALSE|FALSE (ssRNA)
# RNA: GGGAGUUCUACAGUCCGACGAUCAAAGCAUUAUUUUCAUGUAAAACAUGAAAAAAAUGAGUAAAAAGUUUUCAACUGCCUAUGAUCAUGAUGAGAAUUUACUGCUUUCUUAAAAAAUUAUAUUGGCAUUUCAUUAAAAAUAAUCAACAGAGGAUUGAGCAUCA
# B11: chrX:98862621:98862622:+_ENSMUSG00000034160_ENSMUST00000044475|mus_hu|mus_mus_mus_hu_False|28_68 (ssRNA)
# RNA: GGGAGUUCUACAGUCCGACGAUCCUGCAUCUCCUUUAGAGUGUUUCCCAUAUUAGAGUAGGCAUCAGCAAAUGUAGGACUGAUUCGAAUAGCCUCCUUAUAAUGCAUCAGUGCUUCCUGCAGUUUUCCCUGCUGCUGCAGUACCAACAGAGGAUUGAGCAUCA
# B12: chr10:128108517:128108518:-_ENSMUSG00000049858_ENSMUST00000054764|mus_hu|motif|central (ssRNA)
# RNA: GGGAGUUCUACAGUCCGACGAUCAAAGUUGUGCAAGUCAUCCAGGGAAAGAGACAGUGACUGACCCCCAGGUGCUCCGGCGGCGUGUAAGCGAUAGGUGUCUGGAUCCAGGUUAGGUACAGGCAGAUGGUUCCGGGUGAAGAACAACAGAGGAUUGAGCAUCA
# B13: chr1:193065829:193065830:-_ENSG00000023572_ENST00000367439|hu_hu|FALSE|FALSE (ssRNA)
# RNA: GGGAGUUCUACAGUCCGACGAUCUUUUUUUAAAUAACACUGAUGAACUAGUGGGAGCAAUUUUCCUUCUUUGUGAAGCCUAUGAGUGUCAGUUGCACCUCCAAUAAAAGUACCAUUGACAAAUAUUCUUGGAACAGUUCUUUCCAACAGAGGAUUGAGCAUCA
# B14: 25966313_25966433_3076_CDS_ENSG00000143970_ENST00000336112|human|control|control (ssRNA)
# RNA: GGGAGUUCUACAGUCCGACGAUCCAUGGGAACAUCUUUGCCUUGAAGCAGCUGAGUCACUAAAGGAUUAUUAGCAGGGAUACUAGAGGUUGGUCUUAAAGUGGGUCCAUUCAUGUUUAAAGAAGUUCCUGGGGUUUUAAGGCUCAACAGAGGAUUGAGCAUCA
# B15: chr4:131456860:131456861:+_ENSMUSG00000028911_ENSMUST00000053819|mus_mus|FALSE|FALSE (ssRNA)
# RNA: GGGAGUUCUACAGUCCGACGAUCGGACCGAGAGCGUGUUUUUGAAGCCGAUUUUGACCUGGAGCGCGACUCUGCCGGGACAUUGGGUUUGGAUUUGGAGGUGGAUCUUGACCUGGCCCGGGGCUCUGGAUUGGGGGCCUCGCUCAACAGAGGAUUGAGCAUCA
# B16: 97780863_97780983_4887_3pUTR_ENSMUSG00000028565_ENSMUST00000075448|mouse|control|control (ssRNA)
# RNA: GGGAGUUCUACAGUCCGACGAUCUUUUUUUUUUUUUUUUUUUUUUUUUUUAGUGCACAUAUGUCAUCAUAAAGUAAUGCUCAGCUAAGUGCUAUAGGGAAGGCAAAGUCUGCUGCUGGCUAUAGGAAGUGACACCAUACACUGCAACAGAGGAUUGAGCAUCA
# B17: chrX:20248820:20248821:+_ENSMUSG00000001924_ENSMUST00000001989|mus_mus|mus_mus_mus_hu_True|8_108 (ssRNA)
# RNA: GGGAGUUCUACAGUCCGACGAUCGGCAAAGUCAGUCACCACAAAGUCAGGUUCUGCCAGUGAGGCCACCAAGGAUUUAAAGCUAAUCUUCUUAGGUACUUUGACCUGACUGACGAUGCCUCCACGGAUGUAGUCAGAGAAGUUCAACAGAGGAUUGAGCAUCA
# B18: 102301495_102304970_659_CDS_ENSMUSG00000034685_ENSMUST00000049057|mouse|control|control (ssRNA)
# RNA: GGGAGUUCUACAGUCCGACGAUCUUCCUGCUGGGUGCUGGCCGGUGUGAGCGAAGCCCAAAGCUGGCUGUAGGUGGAACUGACAGGCAGGCGGGCAGCUCUACGCUGGAACUGCACCCAGGGCUGGGAGCGGGCACCUGGCGACAACAGAGGAUUGAGCAUCA
# B19: chr2:217001844:217001845:+_ENSG00000079246_ENST00000392132|hu_hu|hu_hu_hu_mus_False|28_38 (ssRNA)
# RNA: GGGAGUUCUACAGUCCGACGAUCACCAACUUGAGGAUUAGAUCUUUUGUCAUAAGCAUAUCGGACGAUGGCGACCAUGUUUAACUCAUCCAAAGCAUGAAUCAGGGAGGAAAGUGCAACAGCUGCCGCCUCAUCAUCCUUUGCCAACAGAGGAUUGAGCAUCA
# B20: chr7:141445308:141445309:+_ENSG00000106028_ENST00000265304|hu_hu|hu_hu_hu_mus_False|18_28 (ssRNA)
# RNA: GGGAGUUCUACAGUCCGACGAUCUAUGAUUGUUGUUGCUUGCCGCCUCACAUUGUUUUUAUCCAUGUACUCGCCAUAGUCCACUUUCCCUUCCACAAAUAUACGAGACCCCUUUUUCACAUAUUGAUAUGCCACAUCUCUGAGCAACAGAGGAUUGAGCAUCA
# B21: chr17:64801638:64801639:+_ENSG00000154229_ENST00000413366|hu_mus|hu_hu_hu_mus_False|1_78 (ssRNA)
# RNA: GGGAGUUCUACAGUCCGACGAUCUAUAUAUAUAUAUACAUAUGUACACAUAUAUAGUAAGAGCCUAGUUAAACGUGUAAAGUAGCCAUUCAUUUUUAAAAUUACAUCUACAUUAAAAAAUUAAUAUAUCUGAUAGAGUGCCCACAACAGAGGAUUGAGCAUCA
# B22: chr4:76721835:76721836:+_ENSG00000138768_ENST00000264904|hu_mus|hu_hu_hu_mus_True|58_68 (ssRNA)
# RNA: GGGAGUUCUACAGUCCGACGAUCGUUUGGCUGGGGUUUCUGAGACGCUCUGGAAUAUAACUCAUGUUGCUAAUAAAUCCUAGUUUCCUCUAUGAAAUUCUCUUUGCCAAUCCUCUUCUCUAUUAGUUGCUUUAGUUUCUCUUUCAACAGAGGAUUGAGCAUCA
# Target: T1, UNK ZnF1-3 (human, UniProt Q9C0B0 31-174)
# T1 sequence: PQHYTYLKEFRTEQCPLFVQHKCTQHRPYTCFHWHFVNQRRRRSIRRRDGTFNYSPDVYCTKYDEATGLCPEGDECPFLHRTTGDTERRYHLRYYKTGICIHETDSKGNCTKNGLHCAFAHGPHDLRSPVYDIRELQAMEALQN
# Experiment: nsRBNS (natural sequence RNA bind-n-seq); RBNS binding buffer (assumed for nsRBNS): 25 mM Tris pH 7.5, 150 mM KCl, 3 mM MgCl2, 0.01% Triton X-100, 500 ug/ml BSA, 20 U/ml SUPERase-In, 4 C; UNK is unkempt and MSI1 is Musashi-1; names of the RNAs are library labels; protein concentration not given here; high values mean tight binding
row,Binder,binding signal [enrichment R]
1,B1,2.38
2,B2,0.673
3,B3,0.766
4,B4,1.24
5,B5,1.14
6,B6,1.5
7,B7,2.15
8,B8,1.04
9,B9,0.373
10,B10,1.83
11,B11,1.01
12,B12,2.16
13,B13,0.912
14,B14,1.35
15,B15,1.21
16,B16,1.14
17,B17,1.08
18,B18,0.249
19,B19,1.61
20,B20,0.72
21,B21,1.82
22,B22,0.415
